# Source: the supplement of paper PMC8728848
# This is one part of the list.
# B1: Gal 9 (Homo sapiens), O00182 (protein)
# chain: MAFSGSQAPYLSPAVPFSGTIQGGLQDGLQITVNGTVLSSSGTRFAVNFQTGFSGNDIAFHFNPRFEDGGYVVCNTRQNGSWGPEERKTHMPFQKGMPFDLCFLVQSSDFKVMVNGILFVQYFHRVPFHRVDTISVNGSVQLSYISFQNPRTVPVQPAFSTVPFSQPVCFPPRPRGRRQKPPGVWPANPAPITQTVIHTVQSAPGQMFSTPAIPPMMYPHPAYPMPFITTILGGLYPSKSILLSGTVLPSAQRFHINLCSGNHIAFHLNPRFDENAVVRNTQIDNSWGSEERSLPRKMPFVRGQSFSVWILCEAHCLKVAVDGQHLFEYYHRLRNLPTINRLEVGGDIQLTHVQT
# Columns and labels:
# Test in all cases: glycan array binding signal (z-score within array); higher = stronger binding
# Details in all cases: glycan notation: IUPAC condensed, linker removed
# [1] = target: Gal(b1-4)GlcNAc(b1-3)[GlcNAc(b1-6)]Gal(b1-4)GlcNAc
# In short: (§1)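 Arrays were curated from the Consortium for Functional Glycomics database, 3228 in total, and kept only where the protein sequence was available. Binding is expressed as a within-array Z-score. This score was averaged across arrays of the same protein sequence at different concentrations or buffers and across linkers, and negative values can be read as non-binding.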
# [2] = target: Gal(b1-4)GlcNAc(b1-6)Gal(b1-4)GlcNAc
# In short: as §1
# [3] = target: Gal(b1-4)GlcNAc(b1-6)GalNAc
# In short: as §1
# [4] = target: Gal(b1-4)GlcNAc(b1-6)[Gal(b1-3)]GalNAc
# In short: as §1
# [5] = target: Gal(b1-4)GlcNAc(b1-6)[Gal(b1-4)GlcNAc(b1-3)]GalNAc
# In short: as §1
# [6] = target: Gal(b1-4)GlcNAc6P
# In short: as §1
# [7] = target: Gal(b1-6)Gal
# In short: as §1
# [8] = target: Gal3S(b1-3)GalNAc
# In short: as §1
# [9] = target: Gal3S(b1-3)GlcNAc
# In short: as §1
# [10] = target: Gal3S(b1-3)[Fuc(a1-4)]GlcNAc
# In short: as §1
# [11] = target: Gal3S(b1-4)Glc
# In short: as §1
# [12] = target: Gal3S(b1-4)Glc6S
# In short: as §1
# [13] = target: Gal3S(b1-4)GlcNAc
# In short: as §1
# [14] = target: Gal3S(b1-4)GlcNAc6S
# In short: as §1
# [15] = target: Gal3S(b1-4)[Fuc(a1-3)]Glc
# In short: as §1
# [16] = target: Gal3S(b1-4)[Fuc(a1-3)]Glc6S
# In short: as §1
# [17] = target: Gal3S(b1-4)[Fuc(a1-3)]GlcNAc
# In short: as §1
# [18] = target: Gal3S(b1-4)[Fuc(a1-3)]GlcNAc6S
# In short: as §1
# [19] = target: Gal3S4S(b1-4)GlcNAc
# In short: as §1
# [20] = target: Gal3S6S(b1-4)GlcNAc
# In short: as §1
# [21] = target: Gal3S6S(b1-4)GlcNAc6S
# In short: as §1
# [22] = target: Gal4S(b1-4)GlcNAc
# In short: as §1
# [23] = target: Gal4S6S(b1-4)GlcNAc
# In short: as §1
# [24] = target: Gal6P(b1-4)GlcNAc
# In short: as §1
# [25] = target: Gal6S(b1-3)GlcNAc
# In short: as §1
# [26] = target: Gal6S(b1-3)GlcNAc6S
# In short: as §1
# [27] = target: Gal6S(b1-4)Glc
# In short: as §1
# [28] = target: Gal6S(b1-4)Glc6S
# In short: as §1
# [29] = target: Gal6S(b1-4)GlcNAc
# In short: as §1
# [30] = target: Gal6S(b1-4)GlcNAc6S
# In short: as §1
# [31] = target: GalNAc(a1-3)Gal
# In short: as §1
# [32] = target: GalNAc(a1-3)GalNAc
# In short: as §1
# [33] = target: GalNAc(a1-3)GalNAc(a1-3)Gal(a1-4)Gal(b1-4)GlcNAc
# In short: as §1
# [34] = target: GalNAc(a1-3)GalNAc(b1-3)Gal(a1-4)Gal(b1-4)Glc
# In short: as §1
# [35] = target: GalNAc(b1-3)Gal
# In short: as §1
# [36] = target: GalNAc(b1-3)Gal(a1-4)Gal(b1-4)GlcNAc
# In short: as §1
# [37] = target: GalNAc(b1-3)Gal(a1-4)Gal(b1-4)GlcNAc(b1-3)Gal(b1-4)Glc
# In short: as §1
# [38] = target: GalNAc(b1-3)Gal(a1-6)Gal(b1-4)Glc
# In short: as §1
# [39] = target: GalNAc(b1-3)GalNAc
# In short: as §1
# [40] = target: GalNAc(b1-3)GlcNAc
# In short: as §1
# [41] = target: GalNAc(b1-4)Gal(b1-4)Glc
# In short: as §1
# [42] = target: GalNAc(b1-4)GlcNAc
# In short: as §1
# [43] = target: GalNAc(b1-4)GlcNAc(b1-2)Man
# In short: as §1
# [44] = target: GalNAc(b1-4)GlcNAc(b1-2)Man(a1-3)[GalNAc(b1-4)GlcNAc(b1-2)Man(a1-6)]Man(b1-4)GlcNAc(b1-4)GlcNAc
# In short: as §1
# [45] = target: GalNAc(b1-4)GlcNAc(b1-3)GalNAc(b1-4)GlcNAc
# In short: as §1
# [46] = target: GalNAc(b1-4)GlcNAc6S
# In short: as §1
# [47] = target: GalNAc(b1-6)GalNAc
# In short: as §1
# [48] = target: GalNAc3S(b1-4)GlcNAc
# In short: as §1
# [49] = target: GalNAc3S(b1-4)GlcNAc3S
# In short: as §1
# [50] = target: GalNAc3S(b1-4)[Fuc(a1-3)]GlcNAc
# In short: as §1
# [51] = target: GalNAc4S6S(b1-4)GlcNAc
# In short: as §1
# [52] = target: GalNAc6S(b1-4)GlcNAc
# In short: as §1
# [53] = target: Glc(a1-4)Glc
# In short: as §1
# [54] = target: Glc(a1-4)Glc(a1-4)Glc(a1-4)Glc
# In short: as §1
# [55] = target: Glc(a1-6)Glc(a1-6)Glc
# In short: as §1
# [56] = target: Glc(a1-6)Glc(a1-6)Glc(a1-6)Glc
# In short: as §1
# [57] = target: Glc(b1-4)Glc
# In short: as §1
# [58] = target: Glc(b1-6)Glc
# In short: as §1
# [59] = target: GlcA(b1-3)Gal
# In short: as §1
# [60] = target: GlcA(b1-3)GlcNAc
# In short: as §1
# [61] = target: GlcA(b1-6)Gal
# In short: as §1
# [62] = target: GlcA3S(b1-3)Gal(b1-4)GlcNAc(b1-2)Man
# In short: as §1
# [63] = target: GlcA3S(b1-3)Gal(b1-4)GlcNAc(b1-3)Gal(b1-4)Glc
# In short: as §1
# [64] = target: GlcNAc(a1-3)Gal(b1-4)GlcNAc
# In short: as §1
# [65] = target: GlcNAc(a1-4)Gal(b1-3)GlcNAc
# In short: as §1
# [66] = target: GlcNAc(a1-4)Gal(b1-4)GalNAc
# In short: as §1
# [67] = target: GlcNAc(a1-4)Gal(b1-4)GlcNAc
# In short: as §1
# [68] = target: GlcNAc(a1-4)Gal(b1-4)GlcNAc(b1-3)Gal(b1-4)Glc
# In short: as §1
# [69] = target: GlcNAc(a1-4)Gal(b1-4)GlcNAc(b1-3)Gal(b1-4)GlcNAc
# In short: as §1
# [70] = target: GlcNAc(a1-4)Gal(b1-4)GlcNAc(b1-3)Gal(b1-4)GlcNAc(b1-3)Gal(b1-4)GlcNAc
# In short: as §1
# [71] = target: GlcNAc(a1-4)Gal(b1-4)GlcNAc(b1-3)Gal(b1-4)[Fuc(a1-3)]GlcNAc(b1-3)Gal(b1-4)[Fuc(a1-3)]GlcNAc
# In short: as §1
# [72] = target: GlcNAc(a1-6)Gal(b1-4)GlcNAc
# In short: as §1
# [73] = target: GlcNAc(b1-2)Gal(b1-3)GalNAc
# In short: as §1
# [74] = target: GlcNAc(b1-2)Man(a1-3)[GlcNAc(b1-2)Man(a1-6)]Man(b1-4)GlcNAc(b1-4)GlcNAc
# In short: as §1
# [75] = target: GlcNAc(b1-2)Man(a1-3)[GlcNAc(b1-2)Man(a1-6)]Man(b1-4)GlcNAc(b1-4)[Fuc(a1-6)]GlcNAc
# In short: as §1
binder,measurement,setting,value
B1,glycan array binding signal (z-score),[1],0.555
same,glycan array binding signal (z-score),[2],-0.17
same,glycan array binding signal (z-score),[3],-0.235
same,glycan array binding signal (z-score),[4],-0.234
same,glycan array binding signal (z-score),[5],-0.275
same,glycan array binding signal (z-score),[6],-0.298
same,glycan array binding signal (z-score),[7],-0.318
same,glycan array binding signal (z-score),[8],-0.145
same,glycan array binding signal (z-score),[9],0.996
same,glycan array binding signal (z-score),[10],-0.289
same,glycan array binding signal (z-score),[11],-0.132
same,glycan array binding signal (z-score),[12],0.611
same,glycan array binding signal (z-score),[13],1.32
same,glycan array binding signal (z-score),[14],4.06
same,glycan array binding signal (z-score),[15],-0.335
same,glycan array binding signal (z-score),[16],-0.273
same,glycan array binding signal (z-score),[17],-0.295
same,glycan array binding signal (z-score),[18],-0.251
same,glycan array binding signal (z-score),[19],-0.316
same,glycan array binding signal (z-score),[20],-0.299
same,glycan array binding signal (z-score),[21],-0.308
same,glycan array binding signal (z-score),[22],-0.279
same,glycan array binding signal (z-score),[23],-0.312
same,glycan array binding signal (z-score),[24],-0.27
same,glycan array binding signal (z-score),[25],-0.317
same,glycan array binding signal (z-score),[26],-0.325
same,glycan array binding signal (z-score),[27],-0.32
same,glycan array binding signal (z-score),[28],-0.299
same,glycan array binding signal (z-score),[29],-0.317
same,glycan array binding signal (z-score),[30],-0.323
same,glycan array binding signal (z-score),[31],-0.318
same,glycan array binding signal (z-score),[32],-0.316
same,glycan array binding signal (z-score),[33],0.672
same,glycan array binding signal (z-score),[34],1.47
same,glycan array binding signal (z-score),[35],-0.315
same,glycan array binding signal (z-score),[36],-0.279
same,glycan array binding signal (z-score),[37],-0.036
same,glycan array binding signal (z-score),[38],-0.293
same,glycan array binding signal (z-score),[39],-0.316
same,glycan array binding signal (z-score),[40],-0.255
same,glycan array binding signal (z-score),[41],-0.3
same,glycan array binding signal (z-score),[42],-0.288
same,glycan array binding signal (z-score),[43],-0.303
same,glycan array binding signal (z-score),[44],-0.244
same,glycan array binding signal (z-score),[45],-0.316
same,glycan array binding signal (z-score),[46],-0.264
same,glycan array binding signal (z-score),[47],-0.313
same,glycan array binding signal (z-score),[48],-0.295
same,glycan array binding signal (z-score),[49],-0.307
same,glycan array binding signal (z-score),[50],-0.242
same,glycan array binding signal (z-score),[51],-0.309
same,glycan array binding signal (z-score),[52],-0.286
same,glycan array binding signal (z-score),[53],-0.33
same,glycan array binding signal (z-score),[54],-0.319
same,glycan array binding signal (z-score),[55],-0.309
same,glycan array binding signal (z-score),[56],-0.316
same,glycan array binding signal (z-score),[57],-0.307
same,glycan array binding signal (z-score),[58],-0.327
same,glycan array binding signal (z-score),[59],-0.324
same,glycan array binding signal (z-score),[60],0.12
same,glycan array binding signal (z-score),[61],-0.322
same,glycan array binding signal (z-score),[62],-0.285
same,glycan array binding signal (z-score),[63],0.712
same,glycan array binding signal (z-score),[64],-0.313
same,glycan array binding signal (z-score),[65],-0.316
same,glycan array binding signal (z-score),[66],-0.33
same,glycan array binding signal (z-score),[67],-0.313
same,glycan array binding signal (z-score),[68],0.089
same,glycan array binding signal (z-score),[69],-0.267
same,glycan array binding signal (z-score),[70],0.561
same,glycan array binding signal (z-score),[71],-0.275
same,glycan array binding signal (z-score),[72],-0.312
same,glycan array binding signal (z-score),[73],-0.328
same,glycan array binding signal (z-score),[74],-0.322
same,glycan array binding signal (z-score),[75],-0.312
